# Assay results: PubChem BioAssay AID1345083 (National Center for Advancing Translational Sciences (NCATS), 2018)
# Several values for one entry are separate records, joined by “and”; a condition that tells them apart may be missing. Equal entries are not always repeated. About 6,200 (6.6%) of roughly 94,000 compounds were called active. The inconclusive results got no clear call from the source; some entries with a clear call stand among them for comparison. The call rests on the fitted dose curve; in most records, active means well fitted inhibition curve with a large enough effect; inconclusive means small, poorly fitted or top-dose-only effect; inactive means flat fitted curve, though single readings scatter. A potency beside an inconclusive call is a rough fit, not a confirmed value.
# Assay: Cytotoxic Profiling in HEK 293 Cell Line of Diverse Libraries Using Quantitative High-Throughput Screening; further: nearly all actives have a fitted effect of over 60% in size
# Details: HEK 293 viability, ATP luminescence (CellTiter-Glo), 48-72 h; series mostly up to 115 µM
# Method in brief: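 HEK 293 cells seeded at 250 cells/well were exposed to compound for 48 or 72 hr at 37 degree Celsius. Viability taken as ATP content by CellTiter-Glo luminescence.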
# Potency means the concentration at half of the fitted maximal effect; tags describe the fitted curve by direction and shape.
row,SMILES,Potency
1,Cc1ccc(CN2CC(C(=O)NCCc3noc(C4CC4)n3)CC2=O)cc1 (stereo unspecified),inactive
2,N#Cc1ccc(CN2CC[C@@H]3OCC(=O)N(c4ccccc4)[C@H]3CC2)cc1,"inconclusive: 89.1 µM [inhibitor, partial curve]"
3,O=C(c1ccc(-c2ccc(N3CCCCC3)nc2)cc1)N1CCCC1,"inconclusive: 25.1 µM [inhibitor, partial curve, poor fit]"
4,C=CCN(Cc1ccccc1OC)C(=O)c1cnc2ccccn12,"inconclusive: 50.1 µM [inhibitor, partial curve, poor fit]"
5,COCCN1C(=O)CCC2(CNC(=O)c3cc(F)ccc3F)CCCC=C12 (stereo unspecified),inactive
6,COc1cccc(NC(=O)c2ccc3c(c2)N(C)C2CCCCN2C3=O)c1 (stereo unspecified),"inconclusive: 56.2 µM [inhibitor, partial curve, poor fit]"
7,Cc1nonc1C1CCCN1C(=O)c1cn(Cc2ccccc2F)nn1 (stereo unspecified),inactive
8,CC(C)N1CCn2nc(C(=O)NCCc3ccc(Cl)cc3)cc2C1,"inconclusive: 50.1 µM [inhibitor, partial curve, poor fit]"
9,COc1cccc(OCc2nc3c(n2Cc2ccccc2)C(=O)N(CC2CCOCC2)CCN3)c1,"inconclusive: 22.4 µM [inhibitor, full curve, poor fit]"
10,O=C1c2c(nc(CNCc3cccc(Cl)c3)n2Cc2ccccc2)NCCN1Cc1ccccc1,"inconclusive: 50.1 µM [inhibitor, partial curve, poor fit]"
11,CN1CCN(C(=O)c2ccc3nnc(-c4ccc([S+](C)(=O)[O-])cc4)n3c2)CC1,inactive
12,Cc1ccsc1CN1CCCCCNC(=O)CC1c1ccccc1 (stereo unspecified),"inconclusive: 50.1 µM [inhibitor, partial curve, poor fit]"
13,COc1ccc(C(=O)N2CCCC(c3nnnn3C)C2)cc1 (stereo unspecified),inactive
14,O=C1CC(c2ccccc2)N(C(=O)C2CC2)CCCN(S(=O)(=O)Cc2ccccc2)CCN1 (stereo unspecified),inactive
15,CC(C)(C)c1nnc([C@H]2CCN(C(=O)C3CC3)C2)o1,inactive
16,O=C(NCCc1ccccn1)[C@@H]1CCCN1c1ccnc2ccnn12,inactive
17,CC(c1cccs1)N(C)[S+](=O)([O-])c1cccc(C(F)(F)F)c1 (stereo unspecified),inactive
18,COc1ccc([C@H]2C[C@@H](O)[C@@H](O)[C@@H]2NCc2cccc(C(F)(F)F)c2)cc1,"inconclusive: 126 µM [inhibitor, single point]"
19,Cc1cc(-c2nn(-c3ccccc3F)cc2CN2CCCC(C#N)C2)c(C)s1 (stereo unspecified),"inconclusive: 50.1 µM [inhibitor, partial curve, poor fit]"
20,Cc1cn2nnc(C(=O)NC(C)CCc3ccccc3)c2c(=O)[nH]1 (stereo unspecified),"inconclusive: 89.1 µM [inhibitor, single point]"
21,Cc1noc(C)c1-c1ncc2c(n1)OCCN(Cc1ccccc1)C2=O,inactive
22,O=C1[C@@H]2C[C@@H](CN2CC2CC2)Oc2ccccc2N1Cc1ccccn1,"inconclusive: 112 µM [inhibitor, single point]"

row,SMILES,Potency
1,Cc1cn2nc(-c3nc(C4CCCN(C(=O)c5cccs5)C4)no3)cc2c(=O)[nH]1 (stereo unspecified),"inconclusive: 89.1 µM [inhibitor, single point]"
2,O=C(c1cn2cc(-c3ccccc3Cl)n(CC3CC3)c(=O)c2n1)N1CCCCC1,"inconclusive: 50.1 µM [inhibitor, partial curve, poor fit]"
3,Cc1ccc(-c2cccc(CN3CCCC3C(=O)NCc3cccc(C(F)(F)F)c3)c2)cc1Cl (stereo unspecified),active: 39.8 µM
4,CC(C)(O)CCc1cccc(C(=O)NCc2ccccc2Cn2cccn2)c1,inactive
5,COc1cc(-c2cn(C)c(=O)n3cc(COc4ccnn4C)nc23)ccn1,inactive
6,COc1ccc(CN2CCNc3cc(-c4ccccc4)ncc3C2)cn1,"inconclusive: 100 µM [inhibitor, partial curve]"
7,Cc1c(CN(C)CC2(O)CCCN(Cc3ccc(C(C)C)cc3)C2=O)cnn1C (stereo unspecified),"inconclusive: 79.4 µM [inhibitor, partial curve, poor fit]"
8,O=C(NCc1cccc(C(F)(F)F)c1)c1cnc(-c2ccccc2)nc1-c1ccncc1,"inconclusive: 89.1 µM [inhibitor, single point]"
9,COc1ccc(-c2cc(-c3cccc(O)c3)cn3cncc23)cc1,"inconclusive: 25.1 µM [inhibitor, partial curve, poor fit]"
10,Cc1c(CNC(=O)c2ccc3nc(-c4ccc(F)cc4)cn3c2)cnn1C,"inconclusive: 56.2 µM [inhibitor, partial curve, poor fit]"
11,NS(=O)(=O)c1ccc(C(=O)NCc2cnn(Cc3ccccc3)c2)cc1,"inconclusive: 22.4 µM [inhibitor, full curve, poor fit]"
12,Cc1nc2cccnc2n1CC1CCCN(S(=O)(=O)Cc2ccc(Cl)cc2)C1 (stereo unspecified),active: 31.6 µM
13,O=C(Nc1ccc(Oc2ccccc2)cc1)O[C@@H]1CO[C@H]2[C@@H]1OC[C@@H]2n1nnnc1-c1ccc(-c2ccccc2)cc1,"inconclusive: 44.7 µM [inhibitor, partial curve, poor fit]"
14,CCN1c2cc(C(=O)Nc3ccc(C)c(F)c3)ccc2C(=O)N2CCCCC21 (stereo unspecified),"inconclusive: 44.7 µM [inhibitor, partial curve, poor fit]"
15,Cc1cc(C)cc(C(=O)NC2CCN(c3cnn(CC4CC4)c(=O)c3)CC2)c1,inactive
16,Cc1nc(C(=O)N2CCCC(CCc3cccc(C(F)(F)F)c3)C2)c(C)o1 (stereo unspecified),active: 25.1 µM
17,O=C1CN(C(=O)CCc2ccccc2)CC(O)CN1CCCc1ccccc1 (stereo unspecified),"inconclusive: 50.1 µM [inhibitor, partial curve, poor fit]"
18,CCOc1ccc(C(=O)NC2CCN(c3ccc(C)c(C)c3)C2=O)cc1 (stereo unspecified),"inconclusive: 89.1 µM [inhibitor, single point]"
19,CN1CC(=O)N(C2CCCC2)Cc2c(NCc3cccc(C(F)(F)F)c3)ncnc21,active: 35.5 µM
20,CC(C)CN1C(=O)COC[C@@H]1[C@H](O)c1ccc(NC(=O)C2CCCCC2)cc1,"inconclusive: 89.1 µM [inhibitor, partial curve, poor fit]"
21,CO[C@H]1[C@H](NC(=O)c2cc(C)oc2C)c2ccccc2C12CCNCC2,inactive
22,COc1cccc(CCC(=O)NC2CCN(C(=O)c3cc4c(=O)[nH]c(C)cn4n3)CC2)c1,inactive

row,SMILES,Potency
1,Cc1nc(CN2Cc3nc(-c4ccccc4F)ccc3OCC2=O)cs1,"inconclusive: 112 µM [inhibitor, single point]"
2,COc1ccccc1-c1ccc(CN2CCCCC2C(=O)NCCc2ccccc2)cc1 (stereo unspecified),active: 39.8 µM
3,COc1ccc2[nH]c3c(c2c1)CCNC31CCN(C(=O)C2CCCC2)CC1,"inconclusive: 12.6 µM [inhibitor, partial curve, poor fit]"
4,N#Cc1ccc(CN2CCC3(CC2)CN[S+](=O)([O-])c2ccccc2N3)cc1,"inconclusive: 89.1 µM [inhibitor, single point]"
5,COc1ccc(C(O)C(=O)N2CCC3(CCC(=O)N(C4CC4)C3)CC2)cc1 (stereo unspecified),inactive
6,Cn1cc(C2c3nccn3CCCN2C(=O)c2ncccc2F)cn1 (stereo unspecified),inactive
7,CN(Cc1ccccc1)Cc1cc(CC2(NCc3ccc(N(C)C)cc3)COC2)no1,"inconclusive: 100 µM [inhibitor, partial curve]"
8,COc1ccccc1-c1ccc(CN2CCCC(c3nc4ccc(C)cc4c(=O)[nH]3)C2)cc1 (stereo unspecified),active: 31.6 µM and active: 17.8 µM
9,O=C(COc1ccc(F)cc1)N1CCC(c2noc(-c3ccncc3)n2)C1 (stereo unspecified),"inconclusive: 10 µM [inhibitor, full curve]"
10,O=C(NCCCc1ccccc1)C1CN(C2CCCCC2)C(=O)N1 (stereo unspecified),"inconclusive: 70.8 µM [inhibitor, partial curve, poor fit]"
11,CCCCCNC(=O)C1CCCN1Cc1cccc(-c2ccc(C)c(Cl)c2)c1 (stereo unspecified),active: 44.7 µM
12,COCCN1Cc2sccc2N(CC(O)COc2ccc(OC)cc2)CCC1=O (stereo unspecified),"inconclusive: 44.7 µM [inhibitor, partial curve, poor fit]"
13,O=c1[nH]c2cc(-c3nc(-c4cccnn4)no3)ccc2n1C1CCC(O)CC1 (stereo unspecified),"inconclusive: 100 µM [inhibitor, single point]"
14,O=C(NC1CCCCCC1)C1CCc2nnc(C3CCN([S+](=O)([O-])c4ccccc4Cl)CC3)n21 (stereo unspecified),inactive
15,COc1cccc(-c2ccc(CN3CCN(c4cc(Cl)ncn4)C(=O)C3)cc2)c1,"inconclusive: 79.4 µM [inhibitor, partial curve, poor fit]"
16,CN(CCc1ccccn1)[C@@H]1[C@H](O)[C@H](CO)O[C@@H]1CNS(=O)(=O)c1cccs1,inactive
17,COCCNC(=O)CCc1c(C)nn(-c2ccccc2)c1Oc1ccccc1F,"inconclusive: 44.7 µM [inhibitor, partial curve, poor fit]"
18,CN(Cc1ccccc1)C(=O)[C@@]12CCCC[C@H]1N(C)C(=O)CC2,inactive
19,COc1cc(OC)cc(C(=O)N2CCC3(CC2)N=C(c2ccc(Cl)cc2)NO3)c1,"inconclusive: 70.8 µM [inhibitor, partial curve, poor fit]"
20,COc1cccc(N2C(=O)NC(=NC3CCCC3)C23CCCN(Cc2cccn2C)C3)c1 (stereo unspecified),"inconclusive: 63.1 µM [inhibitor, partial curve, poor fit]"
21,O=C(O)C[C@@H]1CCN(C(=O)c2ccc(F)cc2)C[C@@H]1CCN1CCCCC1,inactive
22,COc1ccc(-c2nc(C)nc3c2CN(C(=O)c2ccc(C)cc2)CC3)cc1,"inconclusive: 89.1 µM [inhibitor, single point]"
